PubChem BioAssay (NCATS)
Values joined by “and” are separate entries in the source; they are usually repeats but may differ in a detail not shown here. Equal entries are not always repeated. The list shows a part of the results. The main result of the screen is listed elsewhere. These columns were measured beside it and carry no call. For some of these results: Compounds called inactive in the main read-out are mostly missing here. For some of these results: Words in brackets tell the shape of the fitted curve; partial curves, single points and poor fits give uncertain potencies.

Columns and labels:
[1] = qHTS Assay for Lipid Storage Modulators (AID 1519); conditions: Drosophila S3 cells, BODIPY lipid droplet/cell ratio, laser cytometry, cells loaded with oleic acid
How it was run: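 Cells seeded at 5,000 per well were treated with compounds over a concentration series and loaded with oleic acid (400 uM, as added). Lipid droplet fluorescence (488 nm excitation, 500-530 nm channel) was read by laser-scanning cytometry and normalized to 20 uM Triacsin C.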

[2] = qHTS Assay for Modulators of Human Peripheral Myelin Protein 22 (PMP22) Expression/Activity (AID 1967); conditions: Cell-based PMP22 reporter, dual-color luciferase ratio
How it was run: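 Mouse MSC80 Schwann cells carrying Pmp22 promoter–green click beetle luciferase plus EF-alpha–red luciferase control, dosed 24 h at 37 °C. Dual-filter luminescence, overlap-corrected; %Activity from green/red ratio normalised to untreated cells, concentration-response curves fitted.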

[3] = qHTS Validation Assay to Find Inhibitors of Chronic Active B-Cell Receptor Signaling (AID 485345); conditions: ABC-DLBCL cells, chronic BCR signaling reporter; measured here: CBG/CBR ratio read-out
How it was run: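 TMD8 ABC-DLBCL cells with dox-inducible green luciferase–IκBα fusion and red native luciferase; compounds 46 uM–3 nM, 4 h at 37C with doxycycline in 0.5% FBS IMDM. Green/red ratio normalized to basal and 10 uM MG-132.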

[4] = A High-Content qHTS Against Drug Library for the Identification of Small Molecules that Inhibit DYT1 Early Onset Primary Dystonia-Associated Cell Pathology (AID 1645839); conditions: HEK293 Flp-In EGFP-delE TorsinA, punctate imaging, 48 h; measured here: cell count cytotoxicity
How it was run: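 Induced EGFP-delE TorsinA cells are imaged after 48 h of compound treatment. Punctate fusion-protein distribution gives the %pathology value, while nuclei counts flag toxicity. Wild-type EGFP-hTOR1A cells define the normal pattern.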

[5] = qHTS assay for small molecule antagonists of retinoid X receptor alpha signaling (AID 588546); conditions: HEK293T RXRa-UAS-bla, beta-lactamase ratio, antagonist mode; measured here: W530 green channel, cytotoxicity proxy;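 note: cells stimulated with 9-cis-retinoic acid as agonist; % is set by controls: 0 for no effect and ±100 for the full control effect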
How it was run: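 Beta-lactamase reporter inhibition, read as CCF4 fluorescence ratio (ex 405, em 460/530 nm) after 2 h at RT. HEK293T UAS-bla cells, 2500/well, were stimulated with 9-cis-RA at 500 or 100 nM final alongside test compound for 18 h at 37 C.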

[6] = qHTS drug screen for cell cycle checkpoint inhibitors in PARPi-resistant BRCA-mutant ovarian cancer cell lines. (AID 1963452); conditions: PEO1/OlaR viability, CellTiter-Glo luminescence, 96 h; measured here: PEO1 parental viability
How it was run: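 PEO1, PEO4 and PEO1/OlaR ovarian cancer cells, 600 per well, exposed 96 h at 37C to a dilution series. Viability read by CellTiter-Glo luminescence, normalized to DMSO and empty wells; activity summarized as Z-AUC.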

[7] = qHTS for identification of novel therapeutic agents for treatment of microphthalmiaassociated transcription factor (MiT) renal cell carcinoma (RCC) (AID 1963991); conditions: CellTiter-Glo, 48 h; for z-score: stronger effect = lower value
How it was run: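 Curves over 11 concentrations were fitted to CellTiter-Glo luminescence, scaled between empty wells (0%) and DMSO (100%) viability. Cells were UOK109, UOK124 and UOK145 TFE3-fusion RCC lines at 500/well, exposed 48 hours at 37 C.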

[8] = measured here: cell count channel max response
[9] = measured here: cell number channel AC50
[10] = measured here: lipid (BODIPY) channel AC50
[11] = measured here: lipid channel max response
[12] = measured here: green reporter channel AC50, mouse Pmp22 promoter in mouse Schwann cells
[13] = measured here: red reporter channel AC50, EF-alpha promoter control reporter in MSC80 mouse Schwann cells
[14] = TFE3-RCC UOK109 viability, measured here: UOK109 Z-AUC
[15] = TFE3-RCC viability, measured here: UOK124 Z-AUC
[16] = TFE3-RCC viability, measured here: UOK145 Z-AUC
[17] = TFE3-RCC viability, measured here: UOK145 cell viability
Tags give direction and shape of the fitted curve.

| Structure (SMILES) | max response [1, 8] | AC50 [1, 9] | AC50 [1, 10] | max response [1, 11] | AC50 [2, 12] | AC50 [2, 13] | AC50 [3] | AC50 [4] | max response [5] | AC50 [6] | z-score [7, 14] | z-score [7, 15] | z-score [7, 16] | AC50 [7, 17] | AC50 ([7]; TFE3-RCC viability, measured here: UOK124 cell viability) |
| --- | --- | --- | --- | --- | --- | --- | --- | --- | --- | --- | --- | --- | --- | --- | --- |
| CNCC(O)c1ccc(O)c(O)c1 (stereo not drawn) | 19% and 40.6% | 15.8 µM [falling, single point] | 44.7 µM [rising, partial curve, poor fit] and 15.8 µM [falling, single point] | 38% and 42.9% | 84.9 µM [falling, single point] | 95.3 µM [falling, single point] | 0.651 µM [falling, single point] | 35.5 µM [rising, single point] |  |  |  |  |  |  |  |
| CN(C)CCOC(c1ccccc1)c1ccccc1 | 29% | 2.82 µM [rising, full curve, poor fit] | 2.51 µM [rising, full curve, poor fit] | 30.1% |  | 84.9 µM [falling, single point] |  |  | 8.58% | 0.0098 µM [rising, full curve, poor fit] | -0.32 | 0.742 | -0.0218 | 37.2 µM [falling, single point] |  |
| COCCCCC(=NOCCN)c1ccc(C(F)(F)F)cc1 | 85.2% | 12.6 µM [rising, partial curve] | 12.6 µM [rising, partial curve] | 112% |  |  |  |  |  |  | -0.235 | -0.164 | -0.321 | 20.9 µM [falling, partial curve, poor fit] | 14.8 µM [falling, partial curve] |
| O=C(Nc1cc(C(=O)Nc2ccc(S(=O)(=O)O)cc2S(=O)(=O)O)cc(C(=O)Nc2ccc(S(=O)(=O)O)cc2S(=O)(=O)O)c1)Nc1cc(C(=O)Nc2ccc(S(=O)(=O)O)cc2S(=O)(=O)O)cc(C(=O)Nc2ccc(S(=O)(=O)O)cc2S(=O)(=O)O)c1 | -54.1% | 8.91 µM [falling, full curve] | 8.91 µM [falling, full curve] | -54.4% |  | 95.3 µM [falling, single point] |  |  |  |  |  |  |  |  |  |
| CC(CCc1ccc(O)cc1)NCCc1ccc(O)c(O)c1 (stereo not drawn) | -44.5% | 10 µM [falling, partial curve, poor fit] | 10 µM [falling, partial curve, poor fit] | -61.3% | 67.5 µM [falling, partial curve] | 60.1 µM [falling, partial curve] |  |  |  |  | -0.152 | -0.104 | 0.661 | 23.5 µM [falling, partial curve, poor fit] |  |
